Data reported in a compilation of properties of binary mixtures (doi:10.1016/j.jct.2014.10.022).
The densities may have been worked out from excess volumes.

Assay: xn = mol fraction of the nth substance listed
Conditions: 100 kPa

CC[n+]1ccn(C)c1.O=S(=O)([O-])C(F)(F)C(F)F + CCCC[n+]1ccc(C)cc1.O=S(=O)([N-]S(=O)(=O)C(F)(F)F)C(F)(F)F
mass density [kg/m3]
Conditions | x2 = 0.0504 | x2 = 0.112 | x2 = 0.2211 | x2 = 0.3324 | x2 = 0.4432 | x2 = 0.5529 | x2 = 0.6631 | x2 = 0.774 | x2 = 0.8828 | x2 = 0.9517
293.15 K | 1434.3 | 1432.6 | – | – | – | 1422.7 | 1421 | – | 1418 | 1417.2
303.15 K | 1425.8 | 1424 | 1421.1 | – | 1415.6 | 1413.7 | 1411.9 | 1410.1 | 1408.8 | –
313.15 K | – | – | 1412.4 | 1409.5 | – | 1404.7 | – | 1401 | 1399.5 | 1398.7
323.15 K | 1408.8 | 1406.9 | 1403.7 | 1400.6 | – | 1395.6 | 1393.7 | 1391.9 | 1390.3 | 1389.4
333.15 K | 1400.4 | 1398.4 | 1395 | 1391.8 | – | – | – | 1382.8 | 1381.2 | 1380.2
343.15 K | – | 1389.9 | 1386.4 | 1383.1 | 1379.9 | 1377.7 | 1375.7 | 1373.7 | 1372.1 | 1371.1
353.15 K | 1383.7 | 1381.5 | 1377.9 | 1374.4 | 1371.2 | 1368.8 | 1366.8 | – | – | 1362

CCCC[n+]1ccc(C)cc1.O=S(=O)([N-]S(=O)(=O)C(F)(F)F)C(F)(F)F + CCOS(=O)(=O)[O-].CC[n+]1ccn(C)c1
mass density [kg/m3]
Conditions | x2 = 0.0475 | x2 = 0.1177 | x2 = 0.226 | x2 = 0.3341 | x2 = 0.4479 | x2 = 0.558 | x2 = 0.6663 | x2 = 0.7776 | x2 = 0.886 | x2 = 0.9487
293.15 K | 1411.2 | – | 1389.2 | – | 1356.5 | – | 1317.4 | 1294.7 | 1270.4 | 1255
303.15 K | 1401.9 | 1393.8 | 1380.2 | 1365.2 | 1348 | – | 1309.5 | – | 1262.9 | 1247.9
313.15 K | 1392.6 | 1384.7 | 1371.3 | – | 1339.5 | 1321.2 | – | 1279.5 | 1255.8 | –
323.15 K | 1383.5 | 1375.6 | 1362.5 | 1347.9 | 1331.1 | 1313 | – | – | 1248.7 | 1234.1
333.15 K | 1374.4 | – | 1353.6 | – | 1322.5 | – | – | 1264.6 | 1241.7 | 1227.2
343.15 K | – | – | 1344.8 | 1330.6 | 1313.8 | 1296.2 | – | – | 1234.5 | –
353.15 K | – | 1348.6 | – | 1321.8 | 1305.3 | 1288 | 1270.2 | – | 1227.5 | 1213.5
